# Laboratory results: the supplement of paper PMC8728848
# The other results are listed elsewhere or left out.
# B1: CML1 (Coprinopsis cinerea) (protein)
# chain: MAIFHTGSELFIITRGPGKLTLLTWGGLNNLRSVIGAIPTENTGVTKWAVSFSHNYTRFSFIWEGQGEACYQIGNGLTRSPVGRSWSSSSTIHWGSSTVITEDVTSVVPGAVNRDKVTTAYALPDNL
# How the values were obtained:
# Experiment in all cases: glycan array binding signal (z-score within array); higher = stronger binding
# Conditions in all cases: glycan notation: IUPAC condensed, linker removed
# [1] = biological target: Gal(b1-3)GlcNAc(b1-2)Man(a1-3)[Gal(b1-3)GlcNAc(b1-2)Man(a1-6)]Man(b1-4)GlcNAc(b1-4)GlcNAc
# Procedure, shortened: (§1)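 Columns mapping to the same glycan were averaged after glycan names were converted to IUPAC-condensed notation. The data come from 3228 arrays in the Consortium for Functional Glycomics database, limited to those with an available protein sequence. Binding is reported as a within-array Z-score averaged across arrays of one protein sequence and across linkers.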
# [2] = biological target: Gal(b1-3)GlcNAc(b1-2)Man(a1-3)[Gal(b1-3)GlcNAc(b1-2)Man(a1-6)]Man(b1-4)GlcNAc(b1-4)[Fuc(a1-6)]GlcNAc
# Procedure, shortened: as §1
# [3] = biological target: Gal(b1-3)GlcNAc(b1-2)Man(a1-3)[GlcNAc(b1-4)][Gal(b1-3)GlcNAc(b1-2)Man(a1-6)]Man(b1-4)GlcNAc(b1-4)GlcNAc
# Procedure, shortened: as §1
# [4] = biological target: Gal(b1-3)GlcNAc(b1-2)[Gal(b1-3)GlcNAc(b1-6)]Man(a1-6)[Gal(b1-3)GlcNAc(b1-2)Man(a1-3)]Man(b1-4)GlcNAc(b1-4)GlcNAc
# Procedure, shortened: as §1
# [5] = biological target: Gal(b1-3)GlcNAc(b1-3)Gal(b1-3)GlcNAc
# Procedure, shortened: as §1
# [6] = biological target: Gal(b1-3)GlcNAc(b1-3)Gal(b1-4)Glc
# Procedure, shortened: as §1
# [7] = biological target: Gal(b1-3)GlcNAc(b1-3)Gal(b1-4)GlcNAc
# Procedure, shortened: as §1
# [8] = biological target: Gal(b1-3)GlcNAc(b1-3)Gal(b1-4)GlcNAc(b1-2)Man(a1-3)[Gal(b1-3)GlcNAc(b1-3)Gal(b1-4)GlcNAc(b1-2)Man(a1-6)]Man(b1-4)GlcNAc(b1-4)GlcNAc
# Procedure, shortened: as §1
# [9] = biological target: Gal(b1-3)GlcNAc(b1-3)Gal(b1-4)GlcNAc(b1-2)[Gal(b1-3)GlcNAc(b1-3)Gal(b1-4)GlcNAc(b1-6)]Man(a1-6)[Gal(b1-3)GlcNAc(b1-3)Gal(b1-4)GlcNAc(b1-2)Man(a1-3)]Man(b1-4)GlcNAc(b1-4)[Fuc(a1-6)]GlcNAc
# Procedure, shortened: as §1
# [10] = biological target: Gal(b1-3)GlcNAc(b1-3)Gal(b1-4)GlcNAc(b1-3)Gal(b1-4)GlcNAc(b1-2)[Gal(b1-3)GlcNAc(b1-3)Gal(b1-4)GlcNAc(b1-3)Gal(b1-4)GlcNAc(b1-6)]Man(a1-6)[Gal(b1-3)GlcNAc(b1-3)Gal(b1-4)GlcNAc(b1-3)Gal(b1-4)GlcNAc(b1-2)Man(a1-3)]Man(b1-4)GlcNAc(b1-4)[Fuc(a1-6)]GlcNAc
# Procedure, shortened: as §1
# [11] = biological target: Gal(b1-3)GlcNAc(b1-3)Gal(b1-4)GlcNAc(b1-6)[Gal(b1-3)GlcNAc(b1-3)]Gal(b1-4)Glc
# Procedure, shortened: as §1
# [12] = biological target: Gal(b1-3)GlcNAc(b1-3)Gal(b1-4)[Fuc(a1-3)]GlcNAc
# Procedure, shortened: as §1
# [13] = biological target: Gal(b1-3)GlcNAc(b1-3)Gal(b1-4)[Fuc(a1-3)]GlcNAc(b1-6)[Gal(b1-3)GlcNAc(b1-3)]Gal(b1-4)Glc
# Procedure, shortened: as §1
# [14] = biological target: Gal(b1-3)GlcNAc(b1-3)GalNAc
# Procedure, shortened: as §1
# [15] = biological target: Gal(b1-3)GlcNAc(b1-6)Gal(b1-4)GlcNAc
# Procedure, shortened: as §1
# [16] = biological target: Gal(b1-3)GlcNAc(b1-6)GalNAc
# Procedure, shortened: as §1
# [17] = biological target: Gal(b1-3)GlcNAc(b1-6)[Gal(b1-3)]GalNAc
# Procedure, shortened: as §1
# Gal(b1-3)GlcNAc6S = biological target: Gal(b1-3)GlcNAc6S
# Procedure, shortened: as §1
# [18] = biological target: Gal(b1-3)[Fuc(a1-4)]GlcNAc
# Procedure, shortened: as §1
# [19] = biological target: Gal(b1-3)[Fuc(a1-4)]GlcNAc(b1-2)Man
# Procedure, shortened: as §1
# [20] = biological target: Gal(b1-3)[Fuc(a1-4)]GlcNAc(b1-2)Man(a1-3)[Gal(b1-3)[Fuc(a1-4)]GlcNAc(b1-2)Man(a1-6)]Man(b1-4)GlcNAc(b1-4)[Fuc(a1-6)]GlcNAc
# Procedure, shortened: as §1
# [21] = biological target: Gal(b1-3)[Fuc(a1-4)]GlcNAc(b1-3)Gal(b1-3)[Fuc(a1-4)]GlcNAc
# Procedure, shortened: as §1
# [22] = biological target: Gal(b1-3)[Fuc(a1-4)]GlcNAc(b1-3)Gal(b1-4)[Fuc(a1-3)]GlcNAc
# Procedure, shortened: as §1
# [23] = biological target: Gal(b1-3)[Fuc(a1-4)]GlcNAc(b1-6)GalNAc
# Procedure, shortened: as §1
# [24] = biological target: Gal(b1-3)[GlcNAc(b1-6)]GalNAc
# Procedure, shortened: as §1
# [25] = biological target: Gal(b1-3)[Neu5Ac(a2-6)]GalNAc
# Procedure, shortened: as §1
# [26] = biological target: Gal(b1-3)[Neu5Ac(a2-6)]GlcNAc(b1-4)Gal(b1-4)Glc
# Procedure, shortened: as §1
# [27] = biological target: Gal(b1-3)[Neu5Ac(b2-6)]GalNAc
# Procedure, shortened: as §1
# Gal(b1-4)Gal = biological target: Gal(b1-4)Gal
# Procedure, shortened: as §1
# [28] = biological target: Gal(b1-4)GalNAc(a1-3)[Fuc(a1-2)]Gal(b1-4)GlcNAc
# Procedure, shortened: as §1
# [29] = biological target: Gal(b1-4)GalNAc(b1-3)[Fuc(a1-2)]Gal(b1-4)GlcNAc
# Procedure, shortened: as §1
# Gal(b1-4)Glc = biological target: Gal(b1-4)Glc
# Procedure, shortened: as §1
# Gal(b1-4)Glc6S = biological target: Gal(b1-4)Glc6S
# Procedure, shortened: as §1
# Gal(b1-4)GlcNAc = biological target: Gal(b1-4)GlcNAc
# Procedure, shortened: as §1
# [30] = biological target: Gal(b1-4)GlcNAc(a1-6)Gal(b1-4)GlcNAc
# Procedure, shortened: as §1
# Gal(b1-4)GlcNAc(b1-2)Man = biological target: Gal(b1-4)GlcNAc(b1-2)Man
# Procedure, shortened: as §1
# [31] = biological target: Gal(b1-4)GlcNAc(b1-2)Man(a1-3)Man(b1-4)GlcNAc(b1-4)GlcNAc
# Procedure, shortened: as §1
# [32] = biological target: Gal(b1-4)GlcNAc(b1-2)Man(a1-3)[Gal(b1-4)GlcNAc(b1-2)Man(a1-6)]Man(b1-4)GlcNAc(b1-4)GlcNAc
# Procedure, shortened: as §1
# [33] = biological target: Gal(b1-4)GlcNAc(b1-2)Man(a1-3)[Gal(b1-4)GlcNAc(b1-2)Man(a1-6)]Man(b1-4)GlcNAc(b1-4)[Fuc(a1-6)]GlcNAc
# Procedure, shortened: as §1
# [34] = biological target: Gal(b1-4)GlcNAc(b1-2)Man(a1-3)[Gal(b1-4)GlcNAc(b1-2)Man(a1-6)][Gal(b1-4)GlcNAc(b1-4)]Man(b1-4)GlcNAc(b1-4)[Fuc(a1-6)]GlcNAc
# Procedure, shortened: as §1
# [35] = biological target: Gal(b1-4)GlcNAc(b1-2)Man(a1-3)[Gal(b1-4)GlcNAc(b1-2)Man(a1-6)][GlcNAc(b1-4)]Man(b1-4)GlcNAc(b1-4)[Fuc(a1-6)]GlcNAc
# Procedure, shortened: as §1
# [36] = biological target: Gal(b1-4)GlcNAc(b1-2)Man(a1-3)[GlcNAc(b1-2)Man(a1-6)]Man(b1-4)GlcNAc(b1-4)GlcNAc
# Procedure, shortened: as §1
# [37] = biological target: Gal(b1-4)GlcNAc(b1-2)Man(a1-3)[GlcNAc(b1-4)][Gal(b1-4)GlcNAc(b1-2)Man(a1-6)]Man(b1-4)GlcNAc(b1-4)GlcNAc
# Procedure, shortened: as §1
# [38] = biological target: Gal(b1-4)GlcNAc(b1-2)Man(a1-3)[Man(a1-6)]Man(b1-4)GlcNAc(b1-4)GlcNAc
# Procedure, shortened: as §1
# [39] = biological target: Gal(b1-4)GlcNAc(b1-2)Man(a1-6)Man(b1-4)GlcNAc(b1-4)GlcNAc
# Procedure, shortened: as §1
binder,measurement,setting,value
B1,glycan array binding signal (z-score),[1],-0.268
same,glycan array binding signal (z-score),[2],-0.323
same,glycan array binding signal (z-score),[3],-0.32
same,glycan array binding signal (z-score),[4],-0.331
same,glycan array binding signal (z-score),[5],-0.306
same,glycan array binding signal (z-score),[6],-0.323
same,glycan array binding signal (z-score),[7],-0.339
same,glycan array binding signal (z-score),[8],-0.318
same,glycan array binding signal (z-score),[9],-0.296
same,glycan array binding signal (z-score),[10],-0.326
same,glycan array binding signal (z-score),[11],-0.321
same,glycan array binding signal (z-score),[12],0.476
same,glycan array binding signal (z-score),[13],-0.31
same,glycan array binding signal (z-score),[14],-0.337
same,glycan array binding signal (z-score),[15],-0.35
same,glycan array binding signal (z-score),[16],-0.336
same,glycan array binding signal (z-score),[17],-0.328
same,glycan array binding signal (z-score),Gal(b1-3)GlcNAc6S,-0.32
same,glycan array binding signal (z-score),[18],2.06
same,glycan array binding signal (z-score),[19],-0.284
same,glycan array binding signal (z-score),[20],-0.351
same,glycan array binding signal (z-score),[21],2.67
same,glycan array binding signal (z-score),[22],1.68
same,glycan array binding signal (z-score),[23],0.085
same,glycan array binding signal (z-score),[24],-0.332
same,glycan array binding signal (z-score),[25],-0.338
same,glycan array binding signal (z-score),[26],-0.334
same,glycan array binding signal (z-score),[27],-0.351
same,glycan array binding signal (z-score),Gal(b1-4)Gal,-0.331
same,glycan array binding signal (z-score),[28],-0.344
same,glycan array binding signal (z-score),[29],-0.335
same,glycan array binding signal (z-score),Gal(b1-4)Glc,-0.365
same,glycan array binding signal (z-score),Gal(b1-4)Glc6S,-0.319
same,glycan array binding signal (z-score),Gal(b1-4)GlcNAc,-0.355
same,glycan array binding signal (z-score),[30],-0.358
same,glycan array binding signal (z-score),Gal(b1-4)GlcNAc(b1-2)Man,-0.326
same,glycan array binding signal (z-score),[31],-0.341
same,glycan array binding signal (z-score),[32],-0.346
same,glycan array binding signal (z-score),[33],-0.31
same,glycan array binding signal (z-score),[34],-0.348
same,glycan array binding signal (z-score),[35],-0.343
same,glycan array binding signal (z-score),[36],-0.342
same,glycan array binding signal (z-score),[37],-0.336
same,glycan array binding signal (z-score),[38],-0.339
same,glycan array binding signal (z-score),[39],-0.345
